Test results published in PubChem BioAssay AID180 (DTP/NCI, 2004).
Some entries of the source have several records that differ or are many. This is not the full list of results. There may be further records. The values listed for one entry are repeated measurements across runs, samples, wells, individuals or studies.

System: BDF1 mice, Adenocarcinoma 755 s.c., tumor weight T/C
Test: NCI In Vivo Anticancer Drug Screen. Data for tumor model Adenocarcinoma 755 (subcutaneous) in B6D2F1 (BDF1) mice
Settings: endpoint: mean tumor weight, higher = larger tumour
Experimental: The antitumor activity of compounds was measured in mice bearing transplantable tumors. Survival or tumor size were measured and the results are expressed as the measurement made in the treated group (T) divided by the measurement made in the vehicle treated control group (C). The tumor model used in this assay is Adenocarcinoma 755 (subcutaneous) in B6D2F1 (BDF1) mice

[1] = dose: 40.0 mg/kg/injection, schedule: Q01DX011 (ip), vehicle: carboxymethylcellulose (CMC)

N=[N+]=CC(=O)OCC(N)C(=O)O (configuration not stated)
T/C (dose: 2.88 mg/kg/injection, schedule: Q01DX011 (ip), vehicle: carboxymethylcellulose (CMC)): 52 % of control and 110 % of control

ClCCn1cnc2c(SCc3ccccc3Cl)ncnc21
T/C (dose: 4.0 mg/kg/injection, schedule: Q01DX011 (ip), vehicle: other): 5 % of control and 54 % of control

C/C(=N\NC(=O)c1ccncc1)c1cccc(Cl)c1
T/C (dose: 3.7 mg/kg/injection, schedule: Q01DX011 (ip), vehicle: methylcellulose (MC)): 55 % of control and 108 % of control
T/C (dose: 15.0 mg/kg/injection, schedule: Q01DX011 (ip), vehicle: methylcellulose (MC)): 45 % of control and 77 % of control

CCCCCCCCOP(=O)(N1CC1)N1CC1
T/C (dose: 0.5 mg/kg/injection, schedule: Q01DX011 (ip), vehicle: saline): 27 % of control and 62 % of control
T/C (dose: 3.0 mg/kg/injection, schedule: Q01DX011 (ip), vehicle: saline): 49 % of control and 76 % of control

O=C=NC(c1ccccc1)(c1ccccc1)c1ccccc1
T/C (dose: 56.0 mg/kg/injection, schedule: Q01DX011 (ip), vehicle: carboxymethylcellulose (CMC)): 71 % of control and 98 % of control

CN(C)/N=N/c1nc[nH]c1C(N)=O
T/C [1]: 31 % of control and 67 % of control
T/C (dose: 80.0 mg/kg/injection, schedule: Q01DX011 (ip), vehicle: carboxymethylcellulose (CMC)): 42 % of control and 68 % of control
T/C (dose: 125.0 mg/kg/injection, schedule: Q01DX011 (ip), vehicle: carboxymethylcellulose (CMC)): 14 % of control and 44 % of control
T/C (dose: 160.0 mg/kg/injection, schedule: Q01DX011 (ip), vehicle: carboxymethylcellulose (CMC)): 5 % of control and 36 % of control

C[C@]12C=CC(=O)C=C1CC[C@H]1[C@@H]3C[C@@H](O)[C@](O)(C(=O)CO)[C@@]3(C)C[C@H](O)[C@@]12F
T/C (dose: 6.25 mg/kg/injection, schedule: Q01DX011 (sc), vehicle: steriod suspending solution): 34 % of control, 50 % of control, 91 % of control
T/C (dose: 25.0 mg/kg/injection, schedule: Q01DX011 (sc), vehicle: steriod suspending solution): 13 % of control, 17 % of control, 63 % of control
T/C (dose: 50.0 mg/kg/injection, schedule: Q01DX011 (sc), vehicle: steriod suspending solution): 10 % of control and 43 % of control

COc1ccc2c(c1)/C(=C/CCN(C)C)c1ccccc1S2
T/C (dose: 4.0 mg/kg/injection, schedule: Q01DX011 (ip), vehicle: methylcellulose (MC)): 50 % of control and 79 % of control

C(=N\OCCc1ccccc1)/c1cccnc1
T/C (dose: 133.0 mg/kg/injection, schedule: Q01DX011 (ip), vehicle: methylcellulose (MC)): 63 % of control and 118 % of control
T/C (dose: 200.0 mg/kg/injection, schedule: Q01DX011 (ip), vehicle: methylcellulose (MC)): 60 % of control and 104 % of control

S=c1nc[nH]c2c1ncn2C1CCCC1
T/C (dose: 7.5 mg/kg/injection, schedule: Q01DX011 (ip), vehicle: carboxymethylcellulose (CMC)): 43 % of control and 92 % of control

O=S1(=O)CCCO1
T/C (dose: 20.0 mg/kg/injection, schedule: Q01DX011 (ip), vehicle: carboxymethylcellulose (CMC)): 49 % of control and 83 % of control
T/C [1]: 40 % of control and 101 % of control

CC1(C)O[C@@H]2C[C@H]3[C@@H]4CCC5=CC(=O)C=C[C@]5(C)[C@@]4(F)[C@@H](O)C[C@]3(C)[C@]2(C(=O)CO)O1
T/C (dose: 1.5 mg/kg/injection, schedule: Q01DX011 (sc), vehicle: steriod suspending solution): 28 % of control and 90 % of control

O=c1[nH]cc(F)c(=O)[nH]1
T/C (dose: 13.5 mg/kg/injection, schedule: Q01DX011 (ip), vehicle: carboxymethylcellulose (CMC)): 69 % of control and 112 % of control
T/C (dose: 15.5 mg/kg/injection, schedule: Q01DX011 (ip), vehicle: carboxymethylcellulose (CMC)): 44 % of control and 73 % of control

C=CC(CN1CC1)OC(C)=O (configuration not stated)
T/C (dose: 3.25 mg/kg/injection, schedule: Q01DX011 (ip), vehicle: saline): 1 % of control and 30 % of control
T/C (dose: 3.38 mg/kg/injection, schedule: Q01DX011 (ip), vehicle: carboxymethylcellulose (CMC)): 24 % of control and 69 % of control
T/C (dose: 4.95 mg/kg/injection, schedule: Q01DX011 (ip), vehicle: carboxymethylcellulose (CMC)): 11 % of control, 24 % of control, 45 % of control

CC(=O)N(C)C
T/C (dose: 500.0 mg/kg/injection, schedule: Q01DX001 (ip), vehicle: saline): 75 % of control and 114 % of control
T/C (dose: 500.0 mg/kg/injection, schedule: Q01DX011 (sc), vehicle: saline): 55 % of control and 106 % of control
T/C (dose: 1000.0 mg/kg/injection, schedule: Q01DX011 (ip), vehicle: saline): 70 % of control and 105 % of control
T/C (dose: 1000.0 mg/kg/injection, schedule: Q01DX011 (oral), vehicle: saline): 41 % of control and 82 % of control
T/C (dose: 2000.0 mg/kg/injection, schedule: Q01DX001 (ip), vehicle: saline): 50 % of control and 86 % of control

C[C@]12C=CC(=O)C=C1CC[C@@H]1[C@@H]2[C@@H](O)C[C@@]2(C)[C@H]1CC[C@]2(O)C(=O)CF
T/C (dose: 33.0 mg/kg/injection, schedule: Q01DX011 (sc), vehicle: steriod suspending solution): 29 % of control and 95 % of control
T/C (dose: 66.0 mg/kg/injection, schedule: Q01DX011 (sc), vehicle: steriod suspending solution): 18 % of control and 80 % of control

NNC(=O)CCC(N)C(=O)O (configuration not stated)
T/C (dose: 10.76 mg/kg/injection, schedule: Q01DX011 (ip), vehicle: carboxymethylcellulose (CMC)): 73 % of control and 99 % of control
T/C (dose: 21.53 mg/kg/injection, schedule: Q01DX011 (ip), vehicle: carboxymethylcellulose (CMC)): 74 % of control and 105 % of control

CS(=O)(=O)OCCCl
T/C (dose: 14.36 mg/kg/injection, schedule: Q01DX011 (ip), vehicle: carboxymethylcellulose (CMC)): 55 % of control and 110 % of control
T/C (dose: 57.45 mg/kg/injection, schedule: Q01DX011 (ip), vehicle: carboxymethylcellulose (CMC)): 79 % of control and 111 % of control

Cc1ccc(C(=O)Nc2ccc(S(=O)(=O)O)c3cc(S(=O)(=O)O)cc(S(=O)(=O)O)c23)cc1NC(=O)c1cccc(NC(=O)Nc2cccc(C(=O)Nc3cc(C(=O)Nc4ccc(S(=O)(=O)O)c5cc(S(=O)(=O)O)cc(S(=O)(=O)O)c45)ccc3C)c2)c1 (tested in a mixture with another compound)
T/C (dose: 85.0 mg/kg/injection, schedule: Q01DX011 (ip), vehicle: methylcellulose (MC)): 55 % of control and 89 % of control
T/C (dose: 340.0 mg/kg/injection, schedule: Q01DX011 (ip), vehicle: methylcellulose (MC)): 51 % of control and 82 % of control

CCCCN(C)N=Nc1ccc(S(N)(=O)=O)cc1
T/C (dose: 16.0 mg/kg/injection, schedule: Q01DX011 (ip), vehicle: carboxymethylcellulose (CMC)): 30 % of control and 81 % of control

Nc1nc(SCC(=O)c2ccccc2)c2[nH]cnc2n1
T/C (dose: 3.75 mg/kg/injection, schedule: Q01DX011 (ip), vehicle: saline): 16 % of control and 53 % of control
T/C (dose: 7.5 mg/kg/injection, schedule: Q01DX011 (ip), vehicle: saline): 9 % of control and 41 % of control

Nc1nc(=S)c2[nH]cnc2[nH]1
T/C (dose: 0.13 mg/kg/injection, schedule: Q01DX011 (ip), vehicle: methylcellulose (MC)): 22 % of control, 31 % of control, 63 % of control
T/C (dose: 0.25 mg/kg/injection, schedule: Q01DX011 (ip), vehicle: saline): 9 % of control and 53 % of control
T/C (dose: 123.0 micrograms/kg/injection, schedule: Q01DX011 (ip), vehicle: carboxymethylcellulose (CMC)): 23 % of control and 84 % of control
T/C (dose: 245.0 micrograms/kg/injection, schedule: Q01DX011 (ip), vehicle: carboxymethylcellulose (CMC)): 14 % of control and 75 % of control

CC(=O)OCC1OC(n2cnc3c(=O)[nH]cnc32)CC1OC(C)=O (configuration not stated)
T/C (dose: 30.0 mg/kg/injection, schedule: Q01DX011 (ip), vehicle: carboxymethylcellulose (CMC)): 71 % of control and 99 % of control
T/C (dose: 240.0 mg/kg/injection, schedule: Q01DX011 (ip), vehicle: carboxymethylcellulose (CMC)): 78 % of control and 123 % of control

Cn1cnc2c(ncn2C2OC(CO)C(O)C2O)c1=N (configuration not stated)
T/C (dose: 60.0 mg/kg/injection, schedule: Q01DX011 (ip), vehicle: saline): 44 % of control and 94 % of control

CN1CCC(OC(N)=O)CC1
T/C (dose: 350.0 mg/kg/injection, schedule: Q01DX011 (ip), vehicle: carboxymethylcellulose (CMC)): 28 % of control, 50 % of control, 65 % of control

CC(=O)Nc1nc(Cl)c2ncn(C3CCCO3)c2n1 (configuration not stated)
T/C (dose: 120.0 mg/kg/injection, schedule: Q01DX011 (ip), vehicle: carboxymethylcellulose (CMC)): 48 % of control and 76 % of control

CCCn1cnc2c(SCc3ccc(Br)cc3)nc(N)nc21
T/C (dose: 125.0 mg/kg/injection, schedule: Q01DX011 (ip), vehicle: methylcellulose (MC)): 10 % of control and 43 % of control
